Our source for the activity change, negative = inhibition values is PubChem BioAssay AID1745853 (National Center for Advancing Translational Sciences (NCATS), 2022).

What all share (test): Primary Screen for Target Class Profiling of Small Molecule Inhibitors of Methyltransferases
In assay [1] the target is Glycine N-methyltransferase (Homo sapiens) (UniProt Q14749). The settings on record: purified enzyme, MTase-Glo SAH luminescence; measured here: GNMT inhibition; at 40 µM; stronger effect = lower value. A digest of the protocol:
(§1)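 Each enzyme was assayed with SAM and its substrate. SAH formation detected by MTase-Glo luminescence; single-point 40 uM screen[…].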

The target of assay [2] is Guanidinoacetate N-methyltransferase (Homo sapiens) (UniProt Q14353). The settings on record: purified enzyme, MTase-Glo SAH luminescence; measured here: GAMT inhibition; at 40 µM; stronger effect = lower value. The method in brief: as §1
Assay [3] deals with Histamine N-methyltransferase (Homo sapiens) (UniProt P50135). The settings on record: purified enzyme, MTase-Glo SAH luminescence; measured here: HNMT inhibition; at 40 µM; stronger effect = lower value. The method in brief: as §1
Assay [4] deals with Nicotinamide N-methyltransferase (Homo sapiens) (UniProt P40261). The settings on record: purified enzyme, MTase-Glo SAH luminescence; measured here: NNMT inhibition; at 40 µM; stronger effect = lower value. A digest of the protocol: as §1
The target of assay [5] is Phenylethanolamine N-methyltransferase (Homo sapiens) (UniProt P11086). Conditions: purified enzyme, MTase-Glo SAH luminescence; measured here: PNMT inhibition; at 40 µM; stronger effect = lower value. The method in brief:
as §1

Each structure is given as a SMILES string. This is one part of the list. Further columns of the screen follow, without active or inactive calls.
% is scaled to controls: 0 for no effect and ±100 for the full control effect.

Turning to `O[C@@H]1C[C@@H](c2nc(-c3ccc4c(c3)OCO4)no2)N(Cc2ccc(-c3ccccn3)cc2)C1`, the activity change, negative = inhibition was -9.47% in assay [1]; -8.98% in assay [2]; -6.79% in assay [3]; -13.5% in assay [4]; -9.93% in assay [5].

With `CCC(C)NC(=O)c1ccc2c(=O)n(C(C)C)c3nn(Cc4cccc(F)c4)c(=O)n3c2c1` (configuration not stated), the activity change, negative = inhibition in assay [1] is -0.707%; in assay [2], 1.24%; in assay [3] it was 5.22%; in assay [4], -1.76%; in assay [5] it was 0.27%.

In the case of `CCOC(=O)c1cc2n(n1)CC(C)(C(=O)NCc1ccccc1)N(Cc1ccc(OC)cc1OC)C2=O` (configuration not stated), the activity change, negative = inhibition in assay [1] was -1.38%; in assay [2], 3.87%; in assay [3], 1.52%; in assay [4], -11.2%; in assay [5] it was 0.426%.

With `COc1ccc(-c2cc(C(=O)N3C[C@@H](CN(C)C)[C@@H](CO)C3)[nH]n2)cc1`, the activity change, negative = inhibition was -8.77% in assay [1]; -1.29% in assay [2]; -12.2% in assay [3]; 1.74% in assay [4]; 0.355% in assay [5].

For `COc1cccc2c1OCC(C(=O)N1C[C@@H]3[C@H](C1)[C@H]1CC[C@@H]3O1)C2` (some centres not stated), the activity change, negative = inhibition in assay [1] was -5.24%; in assay [2], -7.88%; in assay [3], -2.68%; in assay [4], -5.56%; in assay [5], -4.94%.

As for `CC(C)OCCCNC(=O)C1(C)Cn2c(cc3ccccc32)C(=O)N1Cc1ccc(F)cc1` (configuration not stated), the activity change, negative = inhibition turned out to be 9.45% in assay [1]; 2.17% in assay [2]; 7.72% in assay [3]; 13.6% in assay [4]; 3.22% in assay [5].

Take `CC(=O)C1CCC(=O)N1Cc1ccccc1` (configuration not stated): the activity change, negative = inhibition in assay [1] was 0%; in assay [2], 6.46%; in assay [3] it was 10.7%; in assay [4] it was -4.77%; in assay [5], 2.56%.

On to `CC1CCN(S(=O)(=O)c2ccc3c(c2)oc(=O)n3CC(=O)NCCc2ccccc2)CC1`, for which the activity change, negative = inhibition in assay [1] was -4.05%; in assay [2] it was 0.296%; in assay [3], -4.71%; in assay [4] it was -7.93%; in assay [5], -7.39%.

For the compound `Cc1cc(C)cc(NS(=O)(=O)c2ccc3c(c2)NC(=O)CC(=O)N3)c1`, the activity change, negative = inhibition in assay [1] was 3.08%; in assay [2] it was 3.81%; in assay [3] it was 5.18%; in assay [4], 9.54%; in assay [5] it was 0.429%.

On to `CC(C)Cn1c(=O)c2ccccc2n2c(=O)n(Cc3ccc(F)cc3Cl)nc12`, for which the activity change, negative = inhibition in assay [1] is 5.78%; in assay [2], 3.13%; in assay [3], 9%; in assay [4] it was 4.29%; in assay [5], 7.79%.

In the case of `O=C(O)c1cccc(-c2cccc(C(F)(F)F)c2)c1`, the activity change, negative = inhibition is -16.1% in assay [1]; -8.51% in assay [2]; -7.62% in assay [3]; -22.4% in assay [4]; -9% in assay [5].

`COCC(=O)N1CCCN(c2nc3ncccc3o2)CC1`: the activity change, negative = inhibition in assay [1] is -4.2%; in assay [2], -7.71%; in assay [3], 0.463%; in assay [4] it was -14.9%; in assay [5], 0.843%.

For `CCCC1CCC(c2ccc(C(=O)COC(=O)C(Cc3c[nH]c4ccccc34)NC(=O)c3ccc(CC)cc3)cc2)CC1` (configuration not stated), the activity change, negative = inhibition in assay [1] is 2.18%; in assay [2] it was 5.05%; in assay [3], -3.97%; in assay [4], -9%; in assay [5] it was -2.43%.

In the case of `O=C(c1ccc(CC2CC(=O)N(c3ccccc3)C2)nc1)N1CCCC1` (configuration not stated), the activity change, negative = inhibition is -4.79% in assay [1]; -4.77% in assay [2]; -13.1% in assay [3]; -7.99% in assay [4]; 1.04% in assay [5].

On to `Cn1c(=O)c2ccc(C(=O)NC3CCCC3)cc2n2c(SCc3cccc(Cl)c3)nnc12`, for which the activity change, negative = inhibition in assay [1] is -2.59%; in assay [2], 2.33%; in assay [3], 1.74%; in assay [4], 1.21%; in assay [5], -2.29%.

As to `Fc1ccc(C2CCNC[C@H]2COc2ccc3c(c2)OCO3)cc1` (some centres not stated), the activity change, negative = inhibition was -1.1% in assay [1] and 4.91% in assay [3].

Regarding `CCOc1ccc(CNC(=O)Cn2ccc3cc(S(=O)(=O)N4CCCCC4)ccc32)cc1OC`, the activity change, negative = inhibition in assay [1] is 0.877%; in assay [2], 4.79%; in assay [3] it was -4.34%; in assay [4], -10.1%; in assay [5] it was -0.189%.
